Experimental data as given in article PMC3605390, “Characterisation of ATP-Dependent Mur Ligases Involved in the Biogenesis of Cell Wall Peptidoglycan in Mycobacterium tuberculosis” (PLoS ONE, 2013).
These are yes or no findings as the source states them, for the method shown. Binding seen in cells or lysates may run through a third protein. Some entries that bind do so weakly or less than the wild type. Where a sequence is shown, tags or fusion partners need not be part of it.

Legend:
Assay in all cases: split reporter
[1] = target: T1, MurF synthetase (Rv2157c) of Mycobacterium tuberculosis, M-PFC fusion (Mycobacterium tuberculosis H37Rv) (UniProt P9WJL1)
T1 sequence: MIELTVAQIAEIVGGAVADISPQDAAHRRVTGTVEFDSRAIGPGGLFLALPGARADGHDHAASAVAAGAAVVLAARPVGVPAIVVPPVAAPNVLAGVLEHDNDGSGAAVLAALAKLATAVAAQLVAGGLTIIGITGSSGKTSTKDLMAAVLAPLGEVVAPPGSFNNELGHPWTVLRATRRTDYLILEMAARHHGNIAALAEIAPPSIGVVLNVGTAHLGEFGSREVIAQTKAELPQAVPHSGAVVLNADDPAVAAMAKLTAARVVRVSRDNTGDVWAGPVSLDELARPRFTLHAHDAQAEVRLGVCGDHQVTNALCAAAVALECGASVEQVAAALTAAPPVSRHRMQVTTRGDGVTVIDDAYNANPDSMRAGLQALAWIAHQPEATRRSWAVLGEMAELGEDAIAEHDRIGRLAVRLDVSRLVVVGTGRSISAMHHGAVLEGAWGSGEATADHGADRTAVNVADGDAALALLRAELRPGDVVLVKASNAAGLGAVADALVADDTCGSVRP

[2] = target: T2, MurD synthetase (Rv2155c) of Mycobacterium tuberculosis, M-PFC fusion (Mycobacterium tuberculosis H37Rv) (UniProt P9WJL5)
T2 sequence: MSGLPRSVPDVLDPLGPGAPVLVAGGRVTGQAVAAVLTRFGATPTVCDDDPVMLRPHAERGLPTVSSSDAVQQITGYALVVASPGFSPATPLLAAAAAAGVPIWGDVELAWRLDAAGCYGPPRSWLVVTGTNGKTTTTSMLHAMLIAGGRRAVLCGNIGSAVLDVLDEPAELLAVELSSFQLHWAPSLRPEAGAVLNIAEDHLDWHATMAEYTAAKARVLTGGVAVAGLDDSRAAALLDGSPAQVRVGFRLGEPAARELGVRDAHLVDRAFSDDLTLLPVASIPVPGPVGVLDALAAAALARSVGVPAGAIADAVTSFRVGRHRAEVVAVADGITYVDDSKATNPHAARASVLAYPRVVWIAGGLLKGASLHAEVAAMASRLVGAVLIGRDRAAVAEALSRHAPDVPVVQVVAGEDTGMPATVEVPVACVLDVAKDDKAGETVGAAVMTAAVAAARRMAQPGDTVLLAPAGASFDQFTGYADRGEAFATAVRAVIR

[3] = target: T3, MurC synthetase (Rv2152c) of Mycobacterium tuberculosis, M-PFC fusion (Mycobacterium tuberculosis H37Rv) (UniProt P9WJL7)
T3 sequence: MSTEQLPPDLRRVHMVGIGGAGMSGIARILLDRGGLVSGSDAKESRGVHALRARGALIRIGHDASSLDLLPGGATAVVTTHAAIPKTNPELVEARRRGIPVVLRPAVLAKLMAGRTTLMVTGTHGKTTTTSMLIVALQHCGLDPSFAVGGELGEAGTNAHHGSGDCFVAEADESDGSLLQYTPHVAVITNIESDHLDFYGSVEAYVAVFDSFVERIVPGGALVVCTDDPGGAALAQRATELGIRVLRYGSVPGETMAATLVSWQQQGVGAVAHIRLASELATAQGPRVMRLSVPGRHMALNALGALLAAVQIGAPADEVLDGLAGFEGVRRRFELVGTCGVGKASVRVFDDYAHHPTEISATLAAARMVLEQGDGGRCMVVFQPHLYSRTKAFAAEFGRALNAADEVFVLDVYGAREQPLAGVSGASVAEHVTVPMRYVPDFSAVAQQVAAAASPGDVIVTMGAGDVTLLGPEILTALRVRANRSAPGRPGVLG

[4] = target: T4, MurE synthetase (Rv2158c) of Mycobacterium tuberculosis, M-PFC fusion (Mycobacterium tuberculosis H37Rv) (UniProt P9WJL3)
T4 sequence: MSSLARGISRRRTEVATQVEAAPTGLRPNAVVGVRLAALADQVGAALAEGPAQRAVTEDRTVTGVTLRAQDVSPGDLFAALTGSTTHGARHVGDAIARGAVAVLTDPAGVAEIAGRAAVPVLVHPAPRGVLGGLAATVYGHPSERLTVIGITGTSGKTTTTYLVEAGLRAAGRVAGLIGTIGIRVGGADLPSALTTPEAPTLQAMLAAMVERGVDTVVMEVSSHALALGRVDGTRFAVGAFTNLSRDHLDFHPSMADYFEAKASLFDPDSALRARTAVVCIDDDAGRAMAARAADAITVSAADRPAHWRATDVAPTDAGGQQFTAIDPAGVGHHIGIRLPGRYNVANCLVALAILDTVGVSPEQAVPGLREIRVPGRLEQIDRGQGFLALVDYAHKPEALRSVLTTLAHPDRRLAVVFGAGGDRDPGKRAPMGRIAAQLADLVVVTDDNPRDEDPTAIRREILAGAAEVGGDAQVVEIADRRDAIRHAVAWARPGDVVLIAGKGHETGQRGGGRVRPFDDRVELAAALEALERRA

B1: D-alanine:D-alanine ligase (DdlA, Rv2981c) of Mycobacterium tuberculosis, M-PFC fusion (enzyme, UniProt P9WP31 1-373)
chain: MSANDRRDRRVRVAVVFGGRSNEHAISCVSAGSILRNLDSRRFDVIAVGITPAGSWVLTDANPDALTITNRELPQVKSGSGTELALPADPRRGGQLVSLPPGAGEVLESVDVVFPVLHGPYGEDGTIQGLLELAGVPYVGAGVLASAVGMDKEFTKKLLAADGLPVGAYAVLRPPRSTLHRQECERLGLPVFVKPARGGSSIGVSRVSSWDQLPAAVARARRHDPKVIVEAAISGRELECGVLEMPDGTLEASTLGEIRVAGVRGREDSFYDFATKYLDDAAELDVPAKVDDQVAEAIRQLAIRAFAAIDCRGLARVDFFLTDDGPVINEINTMPGFTTISMYPRMWAASGVDYPTLLATMIETTLARGVGLH
Q: B1 was tested. Which binding [1] did it give?
A: binds

Q: What about the binding [2] of the same binder?
A: no binding

Q: What about the binding [3] of the same binder?
A: no binding

Q: And the binding [4]?
A: no binding
